Assay results published in PubChem BioAssay (Tox21).
Inconclusive results, whose numbers are uncertain, are shown with a selection of clear calls. No potency is given beside an inconclusive call; the fits are too rough. Calls of active or inactive are those of the source. Calls come from the whole dose curve; as a rule, active = well fitted cell-killing curve with a large enough effect in the repeat runs; inconclusive = weak or mixed curves, or effect the other way; inactive = flat fitted curve, though single readings scatter.

Test: qHTS assay to identify small molecule agonists of the estrogen receptor beta (ER-beta) signaling pathway - cell viability counter screen (AID 1259380); note: nearly all actives have a fitted effect of over 30% in size
Conditions: ER-beta-bla HEK293T viability, CellTiter-Glo luminescence, 16 h; series mostly up to 92.4 µM
Source text: National Center for Advancing Translational Sciences [NCATS]
NIH Chemical Genomics Center [NCGC]
U.S. Environmental Protection Agency [EPA]
National Institutes of Environmental Health Sciences [NIEHS]
National Toxicology Program [NTP]
U.S. Food and Drug Administration [FDA]
Estrogen receptor (ER), a nuclear hormone receptor, plays an important role in development, metabolic homeostasis and reproduction. Two subtypes of ER, ER-alpha and ER-beta, have similar expression patterns with some uniqueness in both types. Endocrine disrupting chemicals (EDCs) and their interactions with steroid hormone receptors like ER causes disruption of normal endocrine function. To identify the compounds that activate ER signaling, an ER beta-UAS-bla GripTite cell line (Life Technologies, Madison, WI, USA) containing a beta-lactamase reporter gene under the control of an UAS response element was used to screen Tox21 10K compound library. The cytotoxicity of the Tox21 compound library against the ER-beta-bla cell line was tested in parallel by measuring the cell viability using CellTiter-Glo assay in the same wells.
Tox21 Assay Protocol Summary:
ER-beta-UAS-bla HEK293T cells were dispensed at 2,000 cells/5 uL of assay medium containing 2% charcoal stripped FBS per well into black wall/clear-bottom 1536-well plates using a Multidrop Combi (ThermoFisher Scientific, Waltham, MA) dispenser. After the assay plates were incubated at a 37C and 5% CO2 for 6 hr, 23 nL of compounds dissolved in DMSO, positive controls or DMSO only was transferred to the assay plate by a Pintool station (Kalypsys, San Diego, CA). The plates were incubated at 37C and 5% CO2 for 16 hr. Then 1 uL of LiveBLAzerTM B/G FRET substrate was added using a BioRAPTR FRD (Flying Reagent Dispenser, Aurora Discovery, San Diego, CA) and then the plates were incubated at room temperature for 2 hours, and fluorescence intensity was measured by an Envision plate reader (PerkinElmer, Shelton, CT). For cell viability readout that measures cytotoxicity, 4 uL/well of CellTiter-Glo reagent was added into the assay plates using a FRD. After 30 min incubation at room temperature, the luminescence intensity in the plates was measured using a ViewLux (PerkinElmer) plate reader.
% is set by controls: 0 for no effect and ±100 for the full control effect; potency is the fitted concentration of half-maximal effect; tags give direction and shape of the fitted curve.

SMILES | Potency | activity change, negative = cytotoxicity
CCOC(=O)OC(=O)OCC | inactive | 
CCCCCCCCCCCCI | inconclusive [cytotoxic, full curve] | 
O=C1OC(=O)C2CC=CCC12 (stereo not given) | inactive | 
Clc1ccc2c(Cl)ccnc2c1 | inactive | 
COc1ccnc(CS(=O)c2nc3cc(OC(F)F)ccc3[nH]2)c1OC (stereo not given) | inconclusive [rising, full curve] | 
C1=CCCC1 | inconclusive [cytotoxic, full curve, poor fit] | 
CCn1ccc(NS(=O)(=O)c2ccc(N)cc2)nc1=O | inactive | 
CN/C(=C\[N+](=O)[O-])NCCSCc1csc(CN(C)C)n1 | inconclusive [cytotoxic, single point] | 
Oc1ccccc1-c1nnco1 | inactive | 
COc1ccc2nc(SCc3ncc(C)c(OC)c3C)[nH]c2c1 | inconclusive [cytotoxic, partial curve] | 
CCOC(=O)[C@H](CCc1ccccc1)N[C@H]1CS[C@H](c2cccs2)CN(CC(=O)O)C1=O | inactive | 
CN1CCOC(c2ccccc2)c2ccccc2C1 (stereo not given) | inactive | 
CCCCCCCC(=O)O | inactive | 
CCN1CCC[C@H]1CNC(=O)c1cc(S(N)(=O)=O)ccc1OC | inactive | 
c1cc(CCCc2ccncc2)ccn1 | inactive | 
CC(C)CCCCCCN | inactive | 
CCCCNCC | inactive | 
Oc1ccccc1Cc1ccccc1O | inconclusive [cytotoxic, single point] | 
CC(=O)CC(C)(C)O | inactive | 
CN1C(=O)CC(c2ccccc2)C1=O (stereo not given) | inactive | 

SMILES | Potency | activity change, negative = cytotoxicity
C1CN(CCOCCN2CCOCC2)CCO1 | inactive | 
O=c1[nH]cccc1O | inconclusive [cytotoxic, full curve] | 
CCOc1ccc(NC(=O)OC(C)C)cc1OCC | inconclusive [cytotoxic, partial curve, poor fit] | 
CCCCCO | inactive | 
C=C/C=C/C=C/CCCCC |  | inactive: -7.99% [at 19 µM]
NCC[C@H](O)C(=O)N[C@@H]1C[C@H](N)[C@@H](O[C@H]2O[C@H](CN)[C@@H](O)[C@H](O)[C@H]2O)[C@H](O)[C@H]1O[C@H]1O[C@H](CO)[C@@H](O)[C@H](N)[C@H]1O |  | inactive: 1.09% [at 0.349 µM]
CCN(CC)CCN | inconclusive [rising, partial curve, poor fit] | 
CCCCCCCCCCCCCCCCO | inconclusive [rising, partial curve] | 
O=C(O)CCC(=O)Nc1ccc(S(=O)(=O)Nc2nccs2)cc1 | inconclusive [cytotoxic, single point] | 
CC1(C)C2=CCCC(C)(C)[C@]23CC[C@H]1C3 | inconclusive [cytotoxic, partial curve] | 
CCCCCN(CCCCC)C(=O)C(CCC(=O)O)NC(=O)c1ccc(Cl)c(Cl)c1 (stereo not given) | inconclusive [cytotoxic, partial curve, poor fit] | 
CN(C)CC[C@@H](c1ccc(Br)cc1)c1ccccn1 | inconclusive [cytotoxic, partial curve, poor fit] | 
CCCCC(CC)C(=O)OC(C)C (stereo not given) | inactive | 
Cc1coc2ccccc2c1=O | inactive | 
CCCCC(CC)COCCC#N (stereo not given) | inactive | 
O=[N+]([O-])c1ccc(CO)cc1 | inactive | 
O=C(OCc1ccccc1)C(=O)OCc1ccccc1 | inactive | 
O=C(O)/C=C\C(=O)O | inactive | 
CC(C)=CCCC(C)CC=O (stereo not given) | inconclusive [rising, partial curve, poor fit] | 
O=C(CCCCCCC(=O)Nc1ccccc1)NO | active: 2.66 µM | 
